Results reported in patent US20240092908A1 (ZHEJIANG DOER BIOLOGICS, published 2024).

Legend:
[1] = target: T1, fusion protein hPD1-HSA composed of a PD1 extracellular domain sequence and a human serum albumin sequence (human); assay: ELISA, hPD1-HSA coated 200 ng/well, HRP anti-human IgG Fc
T1 construct: PD-1 extracellular domain fused to HSA; also called Human hPD1-HSA; human PD-1

[2] = target: T1, fusion protein hPD1-HSA composed of a …; assay: competitive ELISA, hPD1-HSA coated; competitor bio-hPDL1-FC, HRP-Streptavidin

B1: Anti-PD1-1A4-Fc (Fc fusion)
chain: QVQLVESGGGLVQPGGSLNLSCVASGNVFIIDVMAWYRQAPGKQRELVAQIINGDAKYYVDSVKGRFTISRDNTKTTLYLQMNSLKPDDTAIYYCSAEKFNPYRDSTNFWGQGTQVTVSS[human IgG4 Fc with S228P (EU numbers) not written out]
For B1, the EC50 [1] was 58 pM and the IC50 [2] was 1450 pM.

B2: Anti-PD1-hu1D3V1-Fc (Fc fusion)
chain: QVQLVESGGGLVQPGGSLRLSCAASGSVFIIDVMAWYRQAPGKQRELVAQIINGGATYYADSVKGRFTISRDNSKNTLYLQMNSLRAEDTAVYYCSAEKFNPYRDSTHFWGQGTLVTVSS[human IgG4 Fc with S228P (EU numbers) not written out]
B2 gave an EC50 [1] of 61 pM and an IC50 [2] of 1100 pM.

B3: Anti-PD1-1A9-Fc (Fc fusion)
chain: QVQLVESGGGLVQPGGSLNLSCVASGNVFIIDVMAWYRQAPGKQRELVAQIINGGATYYADSVKGRFTISRDDTKTTLNLQMNSLKPDDTAVYYCSAEKFNPYRDSTHFWGQGTQVTVSA[human IgG4 Fc with S228P (EU numbers) not written out]
For B3, the EC50 [1] was 58 pM and the IC50 [2] was 1550 pM.

B4: Anti-PD1-1D3-Fc (Fc fusion)
chain: QVQLVESGGGLVQPGGSLNLSCVASGSVFIIDVMAWYRQAPGKQRELVAQIINGGATYYADSVKGRFTISRDDTKTTLYLQMNSLKPDDTAVYYCSAEKFNPYRDSTHFWGQGTQVTVSS[human IgG4 Fc with S228P (EU numbers) not written out]
Binder B4 has an EC50 [1] of 56 pM and an IC50 [2] of 1490 pM.

B5: Anti-PD1-1H1-Fc (Fc fusion)
chain: QVQLVESGGGLVQPGGSLNLSCVASGSVFIIDVMAWYRQAPGKQRELVAQIINGGASYYADSVKGRFTISRDNTKTTLFLQMNSLKPADTAVYYCNAEKFNPYRDSTNFWGQGTQVTVSS[human IgG4 Fc with S228P (EU numbers) not written out]
Binder B5 has an EC50 [1] of 51 pM and an IC50 [2] of 1540 pM.

B6: Anti-PD1-2D9-Fc (Fc fusion)
chain: QVQLVESGGGLVQPGGSLRLSCAASGSVFIIDVMAWYRQAPGKQRELVAQIINGDAKYYADSVKGRFTISRDNTKTTLYLQMNSLKPDDTAVYYCSAEQFNPYRDSTYFWGQGTQVTVSS[human IgG4 Fc with S228P (EU numbers) not written out]
Work on B6 yielded an EC50 [1] of 78 pM and an IC50 [2] of 1440 pM.

B7: Anti-PD1-hu1A4V1-Fc (Fc fusion)
chain: QVQLVESGGGLVQPGGSLRLSCAASGNVFIIDVMAWYRQAPGKQRELVAQIINGDAKYYADSVKGRFTISRDNSKNTLYLQMNSLRAEDTAVYYCSAEKFNPYRDSTNFWGQGTLVTVSS[human IgG4 Fc with S228P (EU numbers) not written out]
B7 was tested, and the EC50 [1] was 63 pM and the IC50 [2] was 965 pM.

B8: Anti-PD1-hu1A4V3-Fc (Fc fusion)
chain: QVQLVESGGGLVQPGGSLRLSCAASGNVFIIDVMAWYRQAPGKGLELVAQIINGDAKYYADSVKGRFTISRDNSKNTLYLQMNSLRAEDTAVYYCSAEKFNPYRDSTNFWGQGTLVTVSS[human IgG4 Fc with S228P (EU numbers) not written out]
B8 gave an EC50 [1] of 48 pM and an IC50 [2] of 2430 pM.

B9: Anti-PD1-hu1A9V1-Fc (Fc fusion)
chain: QVQLVESGGGLVQPGGSLRLSCAASGNVFIIDVMAWYRQAPGKQRELVAQIINGGATYYADSVKGRFTISRDNSKNTLYLQMNSLRAEDTAVYYCSAEKFNPYRDSTHFWGQGTLVTVSS[human IgG4 Fc with S228P (EU numbers) not written out]
With B9 the EC50 [1] was 58 pM and the IC50 [2] was 955 pM.

B10: Anti-PD1-hu1A9V3-Fc (Fc fusion)
chain: QVQLVESGGGLVQPGGSLRLSCAASGNVFIIDVMAWYRQAPGKGLELVAQIINGGATYYADSVKGRFTISRDNSKNTLYLQMNSLRAEDTAVYYCSAEKFNPYRDSTHFWGQGTLVTVSS[human IgG4 Fc with S228P (EU numbers) not written out]
B10 gave an EC50 [1] of 58 pM and an IC50 [2] of 2840 pM.

B11: Anti-PD1-hu1D3V3-Fc (Fc fusion)
chain: QVQLVESGGGLVQPGGSLRLSCAASGSVFIIDVMAWYRQAPGKGLELVAQIINGGATYYADSVKGRFTISRDNSKNTLYLQMNSLRAEDTAVYYCSAEKFNPYRDSTHFWGQGTLVTVSS[human IgG4 Fc with S228P (EU numbers) not written out]
B11 gave an EC50 [1] of 58 pM and an IC50 [2] of 878 pM.

B12: Anti-PD1-hu1H1V3-Fc (Fc fusion)
chain: QVQLVESGGGLVQPGGSLRLSCAASGSVFIIDVMAWYRQAPGKGLELVAQIINGGASYYADSVKGRFTISRDNSKNTLYLQMNSLRAEDTAVYYCNAEKFNPYRDSTNFWGQGTLVTVSS[human IgG4 Fc with S228P (EU numbers) not written out]
B12 gave an EC50 [1] of 60 pM and an IC50 [2] of 1120 pM.

B13: Anti-PD1-hu2C4V1-Fc (Fc fusion)
chain: QVQLVESGGGLVQPGGSLRLSCAASGSVFIIDVMAWYRQAPGKQRELVAQIISGDHAYYADSVKGRFTISRDNSKNTLYLQMNSLRAEDTAVYYCSAEKFNPYRDSTYFWGQGTLVTVSS[human IgG4 Fc with S228P (EU numbers) not written out]
In the case of B13, the EC50 [1] is reported as 58 pM and the IC50 [2] is reported as 1210 pM.

B14: Anti-PD1-hu2C4V3-Fc (Fc fusion)
chain: QVQLVESGGGLVQPGGSLRLSCAASGSVFIIDVMAWYRQAPGKGLELVAQIISGDHAYYADSVKGRFTISRDNSKNTLYLQMNSLRAEDTAVYYCSAEKFNPYRDSTYFWGQGTLVTVSS[human IgG4 Fc with S228P (EU numbers) not written out]
Binder B14 has an EC50 [1] of 55 pM and an IC50 [2] of 1190 pM.

B15: Anti-PD1-hu2D9V1-Fc (Fc fusion)
chain: QVQLVESGGGLVQPGGSLRLSCAASGSVFIIDVMAWYRQAPGKQRELVAQIINGDAKYYADSVKGRFTISRDNSKNTLYLQMNSLRAEDTAVYYCSAEQFNPYRDSTYFWGQGTLVTVSS[human IgG4 Fc with S228P (EU numbers) not written out]
In the case of B15, the EC50 [1] is reported as 62 pM and the IC50 [2] is reported as 1030 pM.

B16: Anti-PD1-hu2D9V3-Fc (Fc fusion)
chain: QVQLVESGGGLVQPGGSLRLSCAASGSVFIIDVMAWYRQAPGKGLELVAQIINGDAKYYADSVKGRFTISRDNSKNTLYLQMNSLRAEDTAVYYCSAEQFNPYRDSTYFWGQGTLVTVSS[human IgG4 Fc with S228P (EU numbers) not written out]
Work on B16 yielded an EC50 [1] of 58 pM and an IC50 [2] of 1150 pM.

B17: Anti-PD1-2C4-Fc (Fc fusion)
chain: QVQLVESGGGLVRPGGSLRLSCAASGSVFIIDVMAWYRQAPGKQRELVAQIISGDHAYYADSVKGRFTISRDDTKTTLYLQMNSLKPDDTAVYYCSAEKFNPYRDSTYFWGQGTQVTVSS[human IgG4 Fc with S228P (EU numbers) not written out]
For B17, the EC50 [1] was 67 pM and the IC50 [2] was 1550 pM.

B18: Anti-PD1-hu1H1V1-Fc (Fc fusion)
chain: QVQLVESGGGLVQPGGSLRLSCAASGSVFIIDVMAWYRQAPGKQRELVAQIINGGASYYADSVKGRFTISRDNSKNTLYLQMNSLRAEDTAVYYCNAEKFNPYRDSTNFWGQGTLVTVSSGGGGSGGGGS[human IgG4 Fc with S228P (EU numbers) not written out]
In the case of B18, the EC50 [1] is reported as 55 pM and the IC50 [2] is reported as 1120 pM.
